Experimental data published in the antibiotic and cytotoxicity screens of Wong et al. (2023).
The other results are listed elsewhere or left out.

Tests used:
HSkMC = human skeletal muscle cells; test: cytotoxicity call (relative viability < 0.9); conditions: 10 µM
HepG2 = test: cytotoxicity call (relative viability < 0.9); conditions: 10 µM
S. aureus RN4220 = test: growth inhibition call (relative growth <= 0.2); conditions: 50 µM

| SMILES | cytotoxicity call (HSkMC) | cytotoxicity call (HepG2) | growth inhibition call (S. aureus RN4220) |
| --- | --- | --- | --- |
| O=C(O)/C=C\C(=O)NCc1cccnc1 | inactive | inactive | inactive |
| C[C@H]1CN([C@@H](C)CO)C(=O)c2cc(NC(=O)Cc3ccccc3)ccc2O[C@@H]1CN(C)S(=O)(=O)c1ccccc1 | inactive | inactive | inactive |
| C[C@H]1CN([C@@H](C)CO)C(=O)Cc2cc(NC(=O)Nc3ccc(C(F)(F)F)cc3)ccc2O[C@@H]1CN(C)S(=O)(=O)c1ccc(Cl)cc1 | inactive | active | inactive |
| C[C@@H]1CN([C@H](C)CO)C(=O)c2cccc(NS(=O)(=O)c3cn(C)cn3)c2O[C@H]1CN(C)C(=O)Nc1ccc2c(c1)OCO2 | inactive | inactive | inactive |
| C[C@@H]1CN([C@H](C)CO)C(=O)c2cc(NS(=O)(=O)c3cccs3)ccc2O[C@@H]1CN(C)CC1CC1 | inactive | inactive | inactive |
| COc1cccc(NC(=O)N[C@H]2C=C[C@@H](CC(=O)N3CCOCC3)O[C@@H]2CO)c1 | inactive | inactive | inactive |
| C[C@@H]1CCCCO[C@H](CN(C)C(=O)Nc2ccc3c(c2)OCO3)[C@@H](C)CN([C@H](C)CO)C(=O)c2cc(NC(=O)Cc3ccccc3)ccc2O1 | inactive | inactive | inactive |
| C[C@@H]1CN([C@H](C)CO)C(=O)Cc2cc(NC(=O)C3CC3)ccc2O[C@@H]1CN(C)S(=O)(=O)c1ccc(F)cc1 | inactive | inactive | inactive |
| C[C@@H]1CN([C@H](C)CO)C(=O)c2cc(NS(C)(=O)=O)ccc2O[C@@H]1CN(C)S(=O)(=O)c1ccc(F)cc1 | inactive | inactive | inactive |
| O=C(CS)NCCCCCCNC(=O)[C@@H]1C[C@@H]2C(=O)N[C@@H](Cc3ccccc3)C(=O)N2[C@@H]1c1ccc(O)cc1 | inactive | inactive | inactive |
| COCC#Cc1ccc2c(c1)O[C@H](CN(C)C(=O)C1CCOCC1)[C@H](C)CN([C@@H](C)CO)S2(=O)=O | inactive | inactive | inactive |
| Cc1ccc(S(=O)(=O)Nc2ccc3c(c2)CC(=O)N([C@@H](C)CO)C[C@@H](C)[C@@H](CN(C)S(=O)(=O)c2c(C)noc2C)O3)cc1 | inactive | inactive | inactive |
| COC(=O)c1c(CC[C@@H](COC(=O)NCCCCCC(=O)NO)NC(=O)N[C@@H](Cc2ccccc2)Cn2cc(-c3ccccc3)nn2)oc(C(=O)N2CCOCC2)c1C(=O)OC | inactive | inactive | inactive |
| C[C@@H]1CN([C@@H](C)CO)C(=O)Cc2cc(NS(=O)(=O)c3ccc(Cl)cc3)ccc2O[C@H]1CN(C)C | inactive | inactive | inactive |
| COc1ccc(NC(=O)N(C)C[C@@H]2OCCCC[C@@H](C)Oc3ccc(NC(=O)Nc4ccccc4)cc3C(=O)N([C@@H](C)CO)C[C@H]2C)cc1 | inactive | inactive | inactive |
| C[C@H](CO)N1C[C@H](C)[C@@H](CN(C)Cc2ccncc2)Oc2ccc(NC(=O)Nc3ccc(C(F)(F)F)cc3)cc2C1=O | inactive | inactive | inactive |
| O=C(NCCN1CCOCC1)c1ccccn1 | inactive | inactive | inactive |
| Nc1ccc(C(=O)NCC(=O)O)cc1 | inactive | inactive | inactive |
| C[C@H]1CN([C@@H](C)CO)S(=O)(=O)c2ccc(-c3cncnc3)cc2O[C@@H]1CN(C)C(=O)Cc1cccnc1 | inactive | inactive | inactive |
| CCCCCCCCCCCCC(C(=O)O)C(C)C(=O)O (configuration not stated) | inactive | inactive | inactive |
| C[C@H](CO)N1C[C@H](C)[C@H](CN(C)C(=O)Nc2ccc(F)cc2)OCCCC[C@H](C)Oc2ccc(NC(=O)C3CCCC3)cc2C1=O | inactive | inactive | inactive |
| COc1ccc(NC(=O)N(C)C[C@@H]2OCc3ccccc3-c3c(n(C)c4ccccc34)C(=O)N([C@H](C)CO)C[C@H]2C)c(OC)c1 | inactive | inactive | inactive |
| Cc1ccc(S(=O)(=O)Nc2ccc3c(c2)C(=O)N([C@@H](C)CO)C[C@H](C)[C@H](CN(C)S(=O)(=O)c2c(C)noc2C)O3)cc1 | inactive | inactive | inactive |
| CN(CP(=O)(O)CN1CCOCC1)S(C)(=O)=O | inactive | inactive | inactive |
| O=C(N1CCOCC1)C(F)(F)F | inactive | inactive | inactive |
| C[C@H]1CN([C@@H](C)CO)C(=O)c2cc(NC(=O)CCCN(C)C)ccc2O[C@H]1CN(C)Cc1ccc2c(c1)OCO2 | inactive | inactive | inactive |
| CC(C)(C)OC(=O)N1CC[C@H](c2cn(-c3ccc(C(F)(F)F)cc3)nn2)[C@@H]1C(=O)Nc1cccc2cccnc12 | inactive | inactive | inactive |
| NCc1cccc(O)c1 | inactive | inactive | inactive |
| C[N+](C)(C)[C@@H]1[C@H]2OC[C@H](O)[C@H]2O[C@@H]1O | inactive | inactive | inactive |
